From the supplement of paper PMC11417369
± gives the standard deviation of the averaged measurements. Some of the results follow.

tested on: PfAP2-EXP AP2 domain (GST-tagged); experiment: gcPBM binding intensity (ln(normalized median fluorescence intensity)); higher = stronger DNA binding
In short: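 Binding intensity values are the highest Masliner-normalised natural-log median intensity among replicate spots of either probe orientation. The binding step lasted 1 h in 1× PBS with 1% milk, 0.2 mg/ml BSA, 0.5% salmon testes DNA and 0.03% Triton X-100, using GST-tagged P. falciparum DNA-binding domains expressed in E. coli on an Agilent 4 × 180k array of primer-extended double-stranded 36-bp intergenic genomic probes plus negative controls. Alexa488 anti-GST antibody and a 488 nm scan detected bound protein.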

| Sequence | gcPBM binding intensity (ln) |
| --- | --- |
| AATAATATATATATAATACACACTATTATAATCACA [CACACA_site1310] | 8.34 ± 0.38 |
| TTTTAATGTACCAGTGTGCACCTTGCGTACATATTA [GTGCAC_site9957] | 9.28 ± 0.45 |
| GCTTATAAAGGCAGAAGTACTGTATTCCTATATATA [XGTACX_site8865] | 8.38 ± 0.28 |
| AAAAAAAAAAAAAAATGTACATATGGTATGCATATA [XGTACX_site3225] | 8.68 ± 0.57 |
| AATAATAAAAAATATACACACATATATATATATATA [CACACA_site25] | 10.2 ± 0.37 |
| TTGGCATACGGACACACACACACACCCAGACATATA [CACACA_site4492] | 8.63 ± 0.59 |
| TATACCTATAAATACACACACATATAAATAAATATA [CACACA_site6153] | 8.6 ± 0.42 |
| TTATACAAATTCATGGGTACAAACAAACATATATCA [XGTACX_site6237] | 8.77 ± 0.52 |
| AAAATATATACTCCATCACACACCAAAAAGAAAAAA [CACACA_site2542] | 8.58 ± 0.58 |
| ATACATAAATACAAACGTACATACATACATACATAC [XGTACX_site7824] | 9.32 ± 0.25 |
| CAGCTCTTAAGAATTACACACATATACACATATATA [CACACA_site7524] | 8.34 ± 0.31 |
| GCAACACAAAAAATTACACACAAAAAAAATATATTA [CACACA_site916] | 8.29 ± 0.61 |
| TCCTTTATTTTTAAAGTGCATATACATGTACATTAT [GTGCAC_site9445] | 8.72 ± 0.3 |
| GAAGAAAAAAAATATACACACATACGATCATACATA [CACACA_site5227] | 8.54 ± 0.42 |
| GTGCCATTTAAAAAATGTACAAGAAAATGTTCATCA [XGTACX_site2865] | 8.36 ± 0.43 |
| TATTTTAATTTTTTTTTGTTTTTTCTAATACATGTA [CACACA_negctrl_site1399] | 8.32 ± 0.59 |
| TGGTATTGAATTTTTTGTACACATAAAATATATATA [XGTACX_site7614] | 8.37 ± 0.3 |
| ACATATGTTAAAAAGGCATGCATTCTTTTTATTTTA [TGCATGCA_site1043] | 8.86 ± 0.26 |
| ATTTTATTTTCTCACACACACATATATATATATATA [CACACA_site5781] | 10.4 ± 0.4 |
| TTTTTTTTGGTATAATGTACATTTTCACTTATGTAT [XGTACX_site3259] | 8.7 ± 0.4 |
| ACCAAAAAAAAAAAAAAAAAAATATACATATATATA [GTGCAC_negctrl_site582] | 8.41 ± 0.11 |
| TATATATATATATATTGTACTAGTGCATATATATAC [XGTACX_site7926] | 10 ± 0.24 |
| ACGTGATAAATAAATACATGCATAGAAAGATGCATA [TGCATGCA_site91] | 8.77 ± 0.29 |
| TACAATGAAAAAATAACATGCAATTATATTTCTCTT [TGCATGCA_site833] | 8.3 ± 0.35 |
